Test results taken from PubChem BioAssay AID463173 (ICCB-Longwood Screening Facility, Harvard Medical School, 2010).
In all, about 52,000 compounds went through this assay and about 1,700 (3.3%) were called active. No stated cut-off is given here; in the data, active means survival mostly below about 52% (no sharp cut-off); inactive means mostly above about 56%. This is one part of the list.

system: Wild type; assay: S. aureus survival, RN4220 and DeltatarO strains – OD600, teichoic acid synthesis inhibitors, primary screen (AID 463173); details: S. aureus RN4220 wild type/DeltatarO growth, OD600, 18 h, active compounds read low, screened at 18.75 µg/mL (by protocol)

Compound	survival
COc1ccc(-c2c3c(=O)n(C)c(=O)n(C)c3c3n2-c2ccccc2NC3c2ccccc2OC)cc1 (stereo not drawn)	inactive: 64%
O=C(O)CCN1C(=O)CSC1=O	inactive: 106%
COC(=O)c1ccc(NC(=O)c2cc3cc(C)ccc3n2C)cc1	inactive: 92%
CCOc1ccc(NC(=O)CSc2nnc3c(C)cc4ccccc4n23)cc1	inactive: 132%
COc1ccc(S(=O)(=O)N2CCC(C(=O)Nc3ccc(Oc4ccccc4)cc3)CC2)cc1OC	inactive: 80%
CC1=CC(c2ccccc2)NC(=S)N1 (stereo not drawn)	inactive: 108%
CCCCSCCCNC(=O)c1cn(CC)c2ccc(S(=O)(=O)N3CCOCC3)cc2c1=O	inactive: 80%
COc1ccc(NC(=O)c2ccc(-c3nc(COc4ccccc4)c(C)o3)cc2)cc1	inactive: 84%
Cc1cccc(NC(c2cccc(Cl)c2)c2ccc3cccnc3c2O)n1 (stereo not drawn)	active: 4%
COc1cc(NC(=O)Nc2nnc(N3CCCCC3)s2)cc(OC)c1	inactive: 72%
COC(=O)c1ccccc1NC(=O)Cn1nc(C)c2nn(-c3ccc(Cl)cc3)c(C)c2c1=O	inactive: 75%
O=c1c2[nH]c3ccccc3c2nc(SCc2ccccc2F)n1-c1ccc(F)cc1	inactive: 84%
CCc1ccccc1NC(=O)Cn1nc(-c2cc(C)ccc2C)c2c(c1=O)CCCC2	inactive: 78%
Cc1ccc2c(CC(=O)Nc3ccc(S(=O)(=O)N4CCC(C)CC4)cc3)coc2c1	inactive: 76%
CC1CCc2nc3ccc(S(=O)(=O)N4CCC(C(=O)NCc5ccccc5Cl)CC4)cc3c(C(=O)O)c2C1 (stereo not drawn)	inactive: 127%
Cc1nn(-c2ccccc2)c2c1N(CCCC(=O)NCc1ccc(OC(C)C)cc1)C(=O)CS2	inactive: 72%
Cc1ccc(CNC(=O)c2ccc3oc(=O)n(Cc4ccccc4)c3c2)cc1	inactive: 57%
COc1ccc(Cl)cc1NC(=O)C1CCCN(S(=O)(=O)c2ccc3c(c2)CCCC(=O)N3)C1 (stereo not drawn)	inactive: 131%
Cc1ccccc1OCC(=O)Nc1ccc(OCc2cc(=O)n3ccccc3n2)cc1	inactive: 98%
CCC1Oc2ccc(C)cc2N(CC(=O)NC(C)C)C1=O (stereo not drawn)	inactive: 102%
O=C(CSc1nc2c(c(=O)[nH]1)CN(Cc1ccc3c(c1)OCO3)CC2)Nc1cc(F)ccc1F	inactive: 83%
CCOC(=O)c1c(NC(=O)CSc2cn(CCNC(=O)c3ccc(OC)cc3)c3ccccc23)sc2c1CCC2	inactive: 72%

Compound	survival
CC1(C)CC(NC(=O)c2ccccc2Cl)CC(C)(C)N1	inactive: 104%
COc1ccc(NC(=O)CSc2nc(-c3ccccc3)cc(-c3cc(OC)c(OC)c(OC)c3)c2C#N)c(OC)c1	inactive: 82%
COc1ccccc1-c1cc(C(=O)Nc2c(C)nn(Cc3ccc(Cl)cc3)c2C)no1	inactive: 49%
COc1ccc(-c2nnc(SCC(=O)Nc3cccc(C)c3)s2)cc1	inactive: 119%
CC(=O)N1CCc2cc(CNS(=O)(=O)c3cccs3)ccc21	inactive: 63%
CCCCOC(=O)c1ccc(NC(=O)C2(c3cccs3)CCOCC2)cc1	inactive: 72%
CCCCN(CCCNC(=O)c1cc(Nc2ccc(OC)cc2OC)nc2ccccc12)Cc1ccccc1	inactive: 85%
CCOc1ccccc1N(C)C(=O)c1sc2nc3n(c(=O)c2c1C)CCCC3	inactive: 85%
Cc1nn(CC(=O)Nc2ccc(C(C)C)cc2)c(=O)c2c(C)n(-c3ccc(Cl)cc3)nc12	inactive: 90%
COc1ccc(NC(=O)CSc2nccn2C2CCCC2)cc1OC	inactive: 72%
COc1ccc(-c2cn3nc(N4CCCC(C(=O)Nc5ccccc5F)C4)sc3n2)cc1 (stereo not drawn)	inactive: 92%
Cn1ccc2cc(S(=O)(=O)N3CCN(C(=O)Nc4cccc(F)c4)CC3)ccc21	inactive: 74%
COc1ccc(NC(=O)C(c2ccc(OC)cc2)N(C)C(=O)Cc2cccs2)cc1 (stereo not drawn)	inactive: 93%
Cc1ccc(Cn2cc(S(=O)(=O)c3ccccc3)c(=O)c3cc(F)c(N4CCOCC4)cc32)cc1	inactive: 58%
O=C1C2C3c4ccccc4C(c4ccccc43)C2C(=O)N1CN1CCOCC1 (stereo not drawn)	inactive: 111%
CC(C)(Oc1ccc(Cl)cc1)C(=O)Nc1ccc(-c2nc3ncccc3o2)cc1	inactive: 74%
COc1ccccc1N1CCN(S(=O)(=O)CCNC(=O)c2cc(=O)c3ccccc3o2)CC1	inactive: 82%
CC(C)(C)c1nnc(NS(=O)(=O)c2ccc(F)cc2)s1	inactive: 102%
COc1cccc(C(=O)CN2C(=O)C(C)(C)Oc3ccc(C(=O)N4CCOCC4)cc32)c1	inactive: 109%
Cc1ccccc1C(=O)Nc1cccc(-c2nc3cccnc3s2)c1	inactive: 87%
COc1ccc(C(CNC(=O)COc2cc(C)c(Cl)c(C)c2)N2CCCCC2)cc1 (stereo not drawn)	inactive: 78%
COc1cccc(N2CCN(C(=O)CCn3nc(C)c(S(=O)(=O)N4CCCC4)c3C)CC2)c1	inactive: 76%

Compound	survival
O=C(CSc1nc(=O)n(Cc2ccncc2)c2c1CCC2)Nc1ccccc1	inactive: 86%
COc1cccc(CNC(=O)CCc2c(C)c3cc4c(C)coc4cc3oc2=O)c1	inactive: 71%
O=c1c(S(=O)(=O)c2ccccc2)cn(Cc2ccc(F)cc2)c2cc(N3CCCC3)c(F)cc12	inactive: 64%
Cc1ccc(OCc2cc(=O)n3c4c(sc3n2)CCCC4)c(C)c1	inactive: 82%
COc1cccc(CNC(=O)C2CCC(CNS(=O)(=O)c3cccs3)CC2)c1 (stereo not drawn)	inactive: 71%
CCCC(=O)N(c1ccc2oc3c(c2c1)CCCC3)S(=O)(=O)c1ccc(CC)cc1	inactive: 67%
CC(=O)NC1C(OC2=CC3OC(=O)CC(C)=C3C=C2)OC(CO)C(O)C1O (stereo not drawn)	inactive: 109%
COc1cccc(NC(=O)c2sc(-n3nc(C)c(Cc4ccccc4Cl)c3C)nc2C)c1	inactive: 98%
CC1CCN(S(=O)(=O)c2ccc3c(c2)N(CC(=O)NCc2ccccc2Cl)C(=O)CO3)CC1	inactive: 153%
COc1ccc(OC)c(-n2c(=O)[nH]c3cc(C(=O)NCCc4ccc(OC)c(OC)c4)ccc3c2=O)c1	inactive: 84%
Cc1ccccc1NC(=O)c1ccc(NC(=O)N2CCSc3ncccc32)cc1	active: -4%
Cc1cc(N2CCCC2)nc(SCC(=O)c2ccccc2)n1	inactive: 110%
COc1ccc(NCc2nc3ccccc3n2CCOc2ccccc2C)cc1	active: 4%
S=c1[nH]nc(CCn2c3ccccc3c3ccccc32)n1-c1ccccc1	inactive: 112%
Cc1ccc(N(C)C(=O)Cn2nc(Cc3ccncc3)c3ccccc3c2=O)cc1C	inactive: 81%
Cc1ccc(CNS(=O)(=O)c2ccc(F)c(C(=O)Nc3ccc(C)c(F)c3)c2)cc1	inactive: 64%
O=C(Nc1ccc(F)cc1)c1ccc(-n2cnc3cccnc32)cc1	inactive: 97%
O=C(NCCc1ccc(Cl)cc1)c1ccc(CS(=O)(=O)Cc2ccc(F)cc2)o1	inactive: 76%
O=C(NCCS(=O)(=O)N1CCN(c2ccccc2F)CC1)c1cc(=O)c2ccccc2o1	inactive: 68%
COC(=O)c1c(SC)nc2ccccc2c1OCc1cccc(C)c1	inactive: 74%
COc1cccc(COC(=O)c2nn(-c3ccccc3)nc2N)c1	inactive: 24%
CCC(CC)C(=O)Nc1cccc(-c2nc3cccnc3s2)c1	inactive: 90%

Compound	survival
COc1cc(OC)c(NC(=O)C(C)n2c(=O)cc(-c3ccccc3)c3c(C)nn(C)c32)cc1Cl (stereo not drawn)	inactive: 73%
CCOc1ccc(-c2nc(Cn3c(=O)cc(-c4ccccc4)c4c(C)nn(C)c43)c(C)o2)cc1OC	inactive: 134%
CCc1ccc(NC(=O)N2CC=C(c3c[nH]c4ccccc34)CC2)cc1	inactive: 47%
CNC(=O)C1CCC(Cn2c(=O)c3sccc3n(Cc3ccccc3)c2=O)CC1 (stereo not drawn)	inactive: 75%
Cc1csc2nc(COC(=O)c3ccccc3NC(=O)c3ccccc3Cl)cc(=O)n12	inactive: 74%
COc1ccccc1CCNC(=O)c1cc2c(=O)n3cccc(C)c3nc2n1C	inactive: 85%
COc1ccc(C(=O)NCC(c2cccnc2)N2CCc3ccccc3C2)cc1 (stereo not drawn)	inactive: 81%
CCN(CC)c1ccc(NC(=O)CCS(=O)(=O)c2cccc3nsnc23)c(C)c1	inactive: 67%
CCOC(=O)c1[nH]c(C)c(CCC(=O)Nc2cc(Cl)ccc2C)c1C	inactive: 73%
Cc1ccc(CNC(=O)C2CCN(c3nn4cc(-c5ccc(F)cc5)nc4s3)CC2)cc1	inactive: 68%
FC(F)(F)Oc1ccc(-n2[nH]nnc2=S)cc1	inactive: 108%
CCSC1=NC2(CCN(C(=O)NC3CCCCC3)CC2)N=C1c1ccc(C)cc1	inactive: 86%
Cc1cc(S(=O)(=O)Nc2cc3c(cc2C)n(C)c(=O)c(=O)n3C)ccc1F	inactive: 71%
CN=c1sc2ccccc2n1CC(O)c1ccccc1 (stereo not drawn)	inactive: 102%
Cc1cc(C)c2c(n1)nn1c(C)c(CCC(=O)Nc3ccc(C)c(Cl)c3)c(C)nc21	inactive: 95%
Cc1cn2c(=O)cc(COC(=O)c3cccc(NC(=O)C(C)Oc4ccccc4)c3)nc2s1 (stereo not drawn)	inactive: 69%
CCOc1ccccc1NC(=O)c1c(NC(=O)C(C)Oc2cccc(Cl)c2)sc2c1CCCCC2 (stereo not drawn)	inactive: 80%
Cc1ccccc1NC(=O)CSc1ncc2c(n1)-c1ccccc1N(C)S2(=O)=O	inactive: 99%
C1CCC2(C1)OCC1(CO2)COC2(CCCC2)OC1	inactive: 111%
CCc1cc2c(cc3c(=O)n(CC(=O)NCc4cccc(Cl)c4)nc(CC)n32)s1	inactive: 85%
CCC1=Nc2cc(C(=O)NCCc3ccccc3)ccc2Sc2ccc(Cl)cc21	inactive: 91%
CCn1c(Oc2ccc(F)cc2F)nc2c1c(=O)n(C)c(=O)n2C	inactive: 68%
